# “And” between values parts separate entries of the source, which are not always exact repeats. Equal values may be shown once. Where a name gives a salt, the structure may show the parent alone. Hit rate of the full screen: of about 5,800 compounds, about 620 (11%) showed activity.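 The calls were made as follows: active = score above a cut-off or among the top three wells of a plate; in these data no inactive exceeds 0.85.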 Only a part is listed here, and it is no random draw.
# Test system: primary human hepatic stellate cells (donor 1)
# Assay: scaled lipid accumulation score (0 = DMSO-like, 1 = nortriptyline-like); higher = stronger HSC inactivation (lipid re-accumulation), active = hit call of the paper
# Settings: 48 h
# [1] = library stock concentration: 10 mM
# [2] = library stock concentration: 3.33 mM
# [3] = library stock concentration: 1 mM
smiles,measurement,setting,value
O=C(CCSCc1ccco1)NNC(=O)N1Cc2ccccc2Oc2ccc(Cl)cc21,scaled lipid accumulation score,[1],inactive: ≤ 0
CC1=C(/C=C/C(C)=C/C=C/C(C)=C/C(=O)Nc2ccc(O)cc2)C(C)(C)CCC1 [Fenretinide],scaled lipid accumulation score,library stock concentration: 5.1 mM,inactive: ≤ -0.006
same,scaled lipid accumulation score,[1],inactive: 0.046
CC1=C(/C=C/C(C)=C/C=C/C(C)=C/C(=O)Nc2ccc(O)cc2)C(C)(C)CCC1 [Retinoic acid p-hydroxyanilide],scaled lipid accumulation score,[1],inactive: ≤ -0.025
NC(=O)c1ncn([C@@H]2O[C@H](CO)[C@@H](O)[C@H]2O)c1N [Acadesine],scaled lipid accumulation score,[2],inactive: ≤ 0
same,scaled lipid accumulation score,[1],inactive: ≤ 0
NC(=O)c1ncn([C@@H]2O[C@H](CO)[C@@H](O)[C@H]2O)c1N,scaled lipid accumulation score,[1],inactive: ≤ 0
COc1cc(C(C)=O)ccc1OCCCN1CCC(c2noc3cc(F)ccc23)CC1,scaled lipid accumulation score,[1],active: 0.933
O=S(=O)(c1ccccc1)c1cnc2c(N3CCNCC3)cccc2c1,scaled lipid accumulation score,[1],active: 0.994
"O=P(O)(O)OC1[C@H](OP(=O)(O)O)[C@H](O)C(O)[C@H](O)[C@H]1OP(=O)(O)O (stereo partly drawn) [D-myo-Inositol-1,2,6-triphosphate (sodium salt)]",scaled lipid accumulation score,[3],inactive: 0.004
CCC(=O)O[C@H]1[C@H](O[C@@H]2[C@@H](C)[C@H](O[C@H]3C[C@@](C)(OC)[C@@H](O)[C@H](C)O3)[C@@H](C)C(=O)O[C@H](CC)[C@@](C)(O)[C@H](O)[C@@H](C)C(=O)[C@H](C)C[C@@]2(C)O)O[C@H](C)C[C@@H]1N(C)C [Erythromycin estolate],scaled lipid accumulation score,library stock concentration: 1.9 mM,inactive: ≤ 0
same,scaled lipid accumulation score,[1],inactive: 0.014
Nc1ncnc2c1ncn2[C@@H]1O[C@H](COP(=O)(O)O)[C@@H](O)[C@H]1O [Adenosine phosphate],scaled lipid accumulation score,library stock concentration: 5.8 mM,inactive: ≤ 0
same,scaled lipid accumulation score,[1],inactive: ≤ 0
CCCC(=O)Oc1ccc2[nH]c(C(=O)c3cc4ccccc4[nH]3)cc2c1 [PDGF Receptor Tyrosine Kinase Inhibitor II],scaled lipid accumulation score,[2],inactive: ≤ 0
C[N+]1(C)CCC(=C(c2ccccc2)c2ccccc2)CC1 [Diphemanil Methylsulfate],scaled lipid accumulation score,[2],inactive: ≤ 0
same,scaled lipid accumulation score,[1],inactive: 0.001
C[N+]1(C)CCC(=C(c2ccccc2)c2ccccc2)CC1 [Diphemanil methylsulfate],scaled lipid accumulation score,,inactive: ≤ 0
COc1cc(/C=C/C(=O)O)ccc1O [Ferulic Acid],scaled lipid accumulation score,[2],inactive: ≤ 0
same,scaled lipid accumulation score,[1],inactive: ≤ 0
COc1cc(/C=C/C(=O)O)ccc1O [Ferulic acid],scaled lipid accumulation score,[1],inactive: ≤ 0
NS(=O)(=O)c1cc2c(cc1Cl)NCNS2(=O)=O [Hydrochlorothiazide],scaled lipid accumulation score,,inactive: ≤ 0
same,scaled lipid accumulation score,[2],inactive: ≤ 0
same,scaled lipid accumulation score,library stock concentration: 6.7 mM,inactive: 0.001
same,scaled lipid accumulation score,[1],inactive: ≤ 0 and inactive: ≤ -0.07
NS(=O)(=O)c1cc2c(cc1Cl)NCNS2(=O)=O,scaled lipid accumulation score,[1],inactive: 0.026
O=C1C(=O)N(Cc2ccc(Cl)c(Cl)c2)c2ccccc21 [Apoptosis Activator 2],scaled lipid accumulation score,[2],inactive: ≤ 0
same,scaled lipid accumulation score,[1],inactive: ≤ 0 and inactive: 0.068
O=C(NC1CCOCC1)c1ccc(-c2cc(-c3c[nH]nc3-c3ccccn3)ccn2)cc1,scaled lipid accumulation score,[2],inactive: ≤ 0
same,scaled lipid accumulation score,[1],inactive: ≤ 0
CN(C)CCc1c[nH]c2ccc(C[C@H]3COC(=O)N3)cc12 [zolmitriptan],scaled lipid accumulation score,library stock concentration: 6.6 mM,inactive: ≤ -0.006
CN(C)CCc1c[nH]c2ccc(C[C@H]3COC(=O)N3)cc12 [Zolmitriptan],scaled lipid accumulation score,[2],inactive: ≤ 0
same,scaled lipid accumulation score,library stock concentration: 7 mM,inactive: ≤ 0
same,scaled lipid accumulation score,[1],inactive: ≤ 0 and inactive: 0.229
O=C1c2cccc(O)c2C(=O)c2c(O)cc(CO)cc21 [Aloe-emodin],scaled lipid accumulation score,[2],inactive: ≤ 0
same,scaled lipid accumulation score,[1],inactive: ≤ 0
O=c1[nH]c(=O)n([C@H]2C[C@H](O)[C@@H](CO)O2)cc1F [Floxuridine],scaled lipid accumulation score,[2],inactive: ≤ 0
same,scaled lipid accumulation score,library stock concentration: 8.1 mM,inactive: ≤ 0
same,scaled lipid accumulation score,[1],inactive: ≤ 0 and inactive: ≤ -0.027
CNNCc1ccc(C(=O)NC(C)C)cc1 [Procarbazine HCl],scaled lipid accumulation score,library stock concentration: 9 mM,inactive: ≤ 0
CNNCc1ccc(C(=O)NC(C)C)cc1,scaled lipid accumulation score,[1],inactive: ≤ 0
CNNCc1ccc(C(=O)NC(C)C)cc1 [Procarbazine hydrochloride],scaled lipid accumulation score,,inactive: ≤ 0
CC(C)CC(NC(=O)OCC1c2ccccc2-c2ccccc21)C(=O)O (stereo not given),scaled lipid accumulation score,[1],inactive: 0.017
Nc1ccc(C(=O)Oc2ccccc2)c(O)c1 [Phenyl aminosalicylate],scaled lipid accumulation score,library stock concentration: 8.7 mM,inactive: 0.075
Cl.O=C(CCCN1CCC(O)(c2cccc(C(F)(F)F)c2)CC1)c1ccc(F)cc1 [Trifluperidol hydrochloride],scaled lipid accumulation score,[1],active: 0.88
COc1cc(C)c(/C=C/C(C)=C/C=C/C(C)=C/C(=O)O)c(C)c1C [Acitretin],scaled lipid accumulation score,[2],inactive: 0.039
same,scaled lipid accumulation score,[1],inactive: ≤ 0
C[n+]1cccc(C(=O)[O-])c1 [Trigonelline],scaled lipid accumulation score,,inactive: ≤ 0
CCCCCCCCCCCCCCC[C@@H](O)[C@@H](N)CO [Dihydrosphingosine],scaled lipid accumulation score,[3],inactive: 0.033
CNCCC(Oc1ccc(C(F)(F)F)cc1)c1ccccc1.Cl (stereo not given) [Fluoxetine hydrochloride],scaled lipid accumulation score,,active: 1.05
CN(C)CCCN1c2ccccc2CCc2ccc(Cl)cc21.Cl [Clomipramine hydrochloride],scaled lipid accumulation score,[1],active: 1.01
CC(C)(F)C[C@H](N[C@@H](c1ccc(-c2ccc(S(C)(=O)=O)cc2)cc1)C(F)(F)F)C(=O)NC1(C#N)CC1 [Odanacatib (MK-0822)],scaled lipid accumulation score,[2],inactive: ≤ 0
same,scaled lipid accumulation score,[1],inactive: ≤ 0
CC(C)OC(=O)CCC/C=C\C[C@@H]1[C@@H](CC[C@@H](O)CCc2ccccc2)[C@H](O)C[C@@H]1O [Latanoprost (free acid)],scaled lipid accumulation score,[3],inactive: ≤ 0
CC1(C)[C@@H](O[C@H]2O[C@H](C(=O)O)[C@@H](O)[C@H](O)[C@H]2O[C@@H]2O[C@H](C(=O)O)[C@@H](O)[C@H](O)[C@H]2O)CC[C@]2(C)[C@H]3C(=O)C=C4[C@@H]5C[C@@](C)(C(=O)O)CC[C@]5(C)CC[C@@]4(C)[C@]3(C)CC[C@@H]12 [Ammonium Glycyrrhizinate],scaled lipid accumulation score,[2],inactive: ≤ 0
same,scaled lipid accumulation score,[1],inactive: ≤ 0
CCOC(=O)CCC(=O)O[C@H]1[C@H](O[C@@H]2[C@@H](C)[C@H](O[C@H]3C[C@@](C)(OC)[C@@H](O)[C@H](C)O3)[C@@H](C)C(=O)O[C@H](CC)[C@@](C)(O)[C@H](O)[C@@H](C)C(=O)[C@H](C)C[C@@]2(C)O)O[C@H](C)C[C@@H]1N(C)C [Eryped],scaled lipid accumulation score,[1],inactive: ≤ 0
CCOC(=O)CCC(=O)O[C@H]1[C@H](O[C@@H]2[C@@H](C)[C@H](O[C@H]3C[C@@](C)(OC)[C@@H](O)[C@H](C)O3)[C@@H](C)C(=O)O[C@H](CC)[C@@](C)(O)[C@H](O)[C@@H](C)C(=O)[C@H](C)C[C@@]2(C)O)O[C@H](C)C[C@@H]1N(C)C [Erythromycin ethylsuccinate],scaled lipid accumulation score,library stock concentration: 2.3 mM,inactive: ≤ -0.001
same,scaled lipid accumulation score,[1],inactive: ≤ 0
COc1cc(NC(=O)c2ccc(-c3ccc(Cl)cc3)o2)cc(OC)c1,scaled lipid accumulation score,[2],inactive: ≤ 0
same,scaled lipid accumulation score,[1],inactive: 0.431
C[C@]12C=CC(=O)C=C1CC[C@@H]1[C@@H]2C(=O)C[C@@]2(C)[C@H]1CC[C@]2(O)C(=O)CO [Prednisone],scaled lipid accumulation score,,inactive: ≤ 0
same,scaled lipid accumulation score,[2],inactive: ≤ 0
same,scaled lipid accumulation score,[1],inactive: ≤ 0
C[C@]12C=CC(=O)C=C1CC[C@@H]1C2=CC[C@]2(C)[C@@H](C(=O)CN3CCN(c4cc(N5CCCC5)nc(N5CCCC5)n4)CC3)CC[C@@H]12,scaled lipid accumulation score,[1],inactive: ≤ 0
Nc1ncnc2nc(-c3ccc(N4CCOCC4)nc3)cc(-c3cccc(Br)c3)c12,scaled lipid accumulation score,library stock concentration: 80 uM,inactive: ≤ -0.001
same,scaled lipid accumulation score,library stock concentration: 400 uM,inactive: 0.008
same,scaled lipid accumulation score,library stock concentration: 2 mM,inactive: ≤ -0.001
Nc1ncnc2nc(-c3ccc(N4CCOCC4)nc3)cc(-c3cccc(Br)c3)c12 [ABT 702 dihydrochloride],scaled lipid accumulation score,[1],inactive: 0.275
CC(C)C(=O)Nc1ncc(-c2cc(C(F)F)nn2-c2c(Cl)cccc2Cl)s1,scaled lipid accumulation score,[1],active: 1.1
c1ccc2c(Oc3nc(Nc4ccc(N5CCOCC5)cc4)c4ncn(C5CCCCC5)c4n3)cccc2c1 [Purmorphamine],scaled lipid accumulation score,[3],inactive: ≤ 0
same,scaled lipid accumulation score,[2],inactive: ≤ 0
same,scaled lipid accumulation score,[1],inactive: 0.032
COCC(=O)NC/C=C/c1ccc2ncnc(Nc3ccc(Oc4ccc(C)nc4)c(C)c3)c2c1,scaled lipid accumulation score,[1],active: 1.46
O=c1ccc2c(OCCCCc3ccccc3)c3ccoc3cc2o1 [Psora-4],scaled lipid accumulation score,[1],inactive: ≤ 0
CCn1cc(C(=O)O)c(=O)c2cc(F)c(N3CCNC(C)C3)c(F)c21 (stereo not given) [Lomefloxacin hydrochloride],scaled lipid accumulation score,,inactive: ≤ 0
same,scaled lipid accumulation score,library stock concentration: 5.2 mM,inactive: ≤ 0
same,scaled lipid accumulation score,[1],inactive: ≤ 0 and inactive: 0.236
CCn1cc(C(=O)O)c(=O)c2cc(F)c(N3CCNC(C)C3)c(F)c21 (stereo not given) [Lomefloxacin HCl],scaled lipid accumulation score,library stock concentration: 5.7 mM,inactive: ≤ 0
COc1cc(C)nc(-n2nc(C)cc2OC)n1 [Epirizole],scaled lipid accumulation score,,inactive: ≤ 0
COc1cc(C)nc(-n2nc(C)cc2OC)n1,scaled lipid accumulation score,[1],inactive: 0.03
Cc1nc(Nc2n[nH]c3c2CN(C(=O)N[C@H](CN(C)C)c2ccccc2)C3(C)C)c2sccc2n1,scaled lipid accumulation score,[1],active: 0.887
CNC(=C[N+](=O)[O-])NCCSCc1csc(CN(C)C)n1,scaled lipid accumulation score,[1],inactive: 0.006
CNC(=C[N+](=O)[O-])NCCSCc1csc(CN(C)C)n1 [Nizatidine],scaled lipid accumulation score,,inactive: ≤ 0
same,scaled lipid accumulation score,[2],inactive: ≤ 0
same,scaled lipid accumulation score,library stock concentration: 6 mM,inactive: ≤ 0
same,scaled lipid accumulation score,[1],inactive: ≤ 0
O=C(O)C1=CCNCC1 [Isoguvacine hydrochloride],scaled lipid accumulation score,[1],inactive: ≤ -0.07 and inactive: ≤ 0
OCc1ccccc1,scaled lipid accumulation score,[1],inactive: ≤ 0
O=C(O)CCCCCC[C@H]1C(=O)C[C@@H](O)[C@@H]1/C=C/[C@@H](O)Cc1ccccc1 [16-phenyl tetranor Prostaglandin E1],scaled lipid accumulation score,[3],inactive: 0.017
